Assay results from the supplement of paper PMC8728848.
The list shows a part of the results.

How the values were obtained:
Experiment in all cases: glycan array binding signal (z-score within array); higher = stronger binding
Conditions in all cases: glycan notation: IUPAC condensed, linker removed
[1] = molecular target: Man(a1-3)[Man(a1-6)]Man(a1-6)[Man(a1-2)Man(a1-3)]Man(b1-4)GlcNAc(b1-4)GlcNAc
Outline: (§1)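 Arrays were curated from the Consortium for Functional Glycomics database, 3228 in total, and kept only where the protein sequence was available. Binding is expressed as a within-array Z-score. This score was averaged across arrays of the same protein sequence at different concentrations or buffers and across linkers, and negative values can be read as non-binding.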

[2] = molecular target: Man(a1-3)[Man(a1-6)]Man(a1-6)[Man(a1-3)]Man
Outline: as §1

[3] = molecular target: Man(a1-3)[Man(a1-6)]Man(a1-6)[Man(a1-3)]Man(b1-4)GlcNAc(b1-4)GlcNAc
Outline: as §1

[4] = molecular target: Man(a1-3)[Man(a1-6)]Man(b1-4)GlcNAc(b1-4)GlcNAc
Outline: as §1

[5] = molecular target: Man(a1-3)[Man(a1-6)]Man(b1-4)GlcNAc(b1-4)[Fuc(a1-6)]GlcNAc
Outline: as §1

Man(a1-6)Man = molecular target: Man(a1-6)Man
Outline: as §1

Man(b1-4)GlcNAc = molecular target: Man(b1-4)GlcNAc
Outline: as §1

MurNAc(b1-4)GlcNAc = molecular target: MurNAc(b1-4)GlcNAc
Outline: as §1

Neu5Ac(a2-3)Gal = molecular target: Neu5Ac(a2-3)Gal
Outline: as §1

[6] = molecular target: Neu5Ac(a2-3)Gal(b1-3)GalNAc
Outline: as §1

[7] = molecular target: Neu5Ac(a2-3)Gal(b1-3)GalNAc(b1-3)Gal(a1-4)Gal(b1-4)Glc
Outline: as §1

[8] = molecular target: Neu5Ac(a2-3)Gal(b1-3)GalNAc(b1-4)[Neu5Ac(a2-3)]Gal(b1-4)Glc
Outline: as §1

[9] = molecular target: Neu5Ac(a2-3)Gal(b1-3)GalNAc(b1-4)[Neu5Ac(a2-8)Neu5Ac(a2-3)]Gal(b1-4)Glc
Outline: as §1

[10] = molecular target: Neu5Ac(a2-3)Gal(b1-3)GalNAc6S
Outline: as §1

[11] = molecular target: Neu5Ac(a2-3)Gal(b1-3)GlcNAc
Outline: as §1

[12] = molecular target: Neu5Ac(a2-3)Gal(b1-3)GlcNAc(b1-2)Man
Outline: as §1

[13] = molecular target: Neu5Ac(a2-3)Gal(b1-3)GlcNAc(b1-2)Man(a1-3)[GlcNAc(b1-4)][Neu5Ac(a2-3)Gal(b1-3)GlcNAc(b1-2)Man(a1-6)]Man(b1-4)GlcNAc(b1-4)GlcNAc
Outline: as §1

[14] = molecular target: Neu5Ac(a2-3)Gal(b1-3)GlcNAc(b1-2)Man(a1-3)[Neu5Ac(a2-3)Gal(b1-3)GlcNAc(b1-2)Man(a1-6)]Man(b1-4)GlcNAc(b1-4)GlcNAc
Outline: as §1

[15] = molecular target: Neu5Ac(a2-3)Gal(b1-3)GlcNAc(b1-3)Gal(b1-3)GlcNAc
Outline: as §1

[16] = molecular target: Neu5Ac(a2-3)Gal(b1-3)GlcNAc(b1-3)Gal(b1-4)GlcNAc
Outline: as §1

[17] = molecular target: Neu5Ac(a2-3)Gal(b1-3)GlcNAc(b1-3)GalNAc
Outline: as §1

[18] = molecular target: Neu5Ac(a2-3)Gal(b1-3)GlcNAc(b1-4)Gal(b1-4)Glc
Outline: as §1

[19] = molecular target: Neu5Ac(a2-3)Gal(b1-3)GlcNAc(b1-6)GalNAc
Outline: as §1

[20] = molecular target: Neu5Ac(a2-3)Gal(b1-3)GlcNAc6S
Outline: as §1

[21] = molecular target: Neu5Ac(a2-3)Gal(b1-3)[Fuc(a1-4)]GlcNAc
Outline: as §1

[22] = molecular target: Neu5Ac(a2-3)Gal(b1-3)[Fuc(a1-4)]GlcNAc(b1-3)Gal(b1-3)[Fuc(a1-4)]GlcNAc
Outline: as §1

[23] = molecular target: Neu5Ac(a2-3)Gal(b1-3)[Fuc(a1-4)]GlcNAc(b1-3)Gal(b1-4)[Fuc(a1-3)]GlcNAc
Outline: as §1

[24] = molecular target: Neu5Ac(a2-3)Gal(b1-3)[GlcNAc(b1-6)]GalNAc
Outline: as §1

[25] = molecular target: Neu5Ac(a2-3)Gal(b1-3)[Neu5Ac(a2-6)]GalNAc
Outline: as §1

[26] = molecular target: Neu5Ac(a2-3)Gal(b1-3)[Neu5Ac(a2-6)]GlcNAc(b1-3)[Fuc(a1-3)[Gal(b1-4)]GlcNAc(b1-6)]Gal(b1-4)Glc
Outline: as §1

[27] = molecular target: Neu5Ac(a2-3)Gal(b1-3)]Neu5Ac(a2-3)Gal(b1-4)]GlcNAc
Outline: as §1

Neu5Ac(a2-3)Gal(b1-4)Glc = molecular target: Neu5Ac(a2-3)Gal(b1-4)Glc
Outline: as §1

[28] = molecular target: Neu5Ac(a2-3)Gal(b1-4)GlcNAc
Outline: as §1

[29] = molecular target: Neu5Ac(a2-3)Gal(b1-4)GlcNAc(b1-2)Man
Outline: as §1

[30] = molecular target: Neu5Ac(a2-3)Gal(b1-4)GlcNAc(b1-2)Man(a1-3)[GlcNAc(b1-4)][Neu5Ac(a2-3)Gal(b1-4)GlcNAc(b1-2)Man(a1-6)]Man(b1-4)GlcNAc(b1-4)GlcNAc
Outline: as §1

[31] = molecular target: Neu5Ac(a2-3)Gal(b1-4)GlcNAc(b1-2)Man(a1-3)[Neu5Ac(a2-3)Gal(b1-4)GlcNAc(b1-2)Man(a1-6)]Man(b1-4)GlcNAc(b1-4)GlcNAc
Outline: as §1

[32] = molecular target: Neu5Ac(a2-3)Gal(b1-4)GlcNAc(b1-2)Man(a1-3)[Neu5Ac(a2-3)Gal(b1-4)GlcNAc(b1-2)Man(a1-6)]Man(b1-4)GlcNAc(b1-4)[Fuc(a1-6)]GlcNAc
Outline: as §1

[33] = molecular target: Neu5Ac(a2-3)Gal(b1-4)GlcNAc(b1-2)Man(a1-3)[Neu5Ac(a2-6)Gal(b1-4)GlcNAc(b1-2)Man(a1-6)]Man(b1-4)GlcNAc(b1-4)GlcNAc
Outline: as §1

B1: DC-Sign (Homo sapiens), Q9NNX6 (protein)
chain: MSDSKEPRLQQLGLLEEEQLRGLGFRQTRGYKSLAGCLGHGPLVLQLLSFTLLAGLLVQVSKVPSSISQEQSRQDAIYQNLTQLKAAVGELSEKSKLQEIYQELTQLKAAVGELPEKSKLQEIYQELTRLKAAVGELPEKSKLQEIYQELTWLKAAVGELPEKSKMQEIYQELTRLKAAVGELPEKSKQQEIYQELTRLKAAVGELPEKSKQQEIYQELTRLKAAVGELPEKSKQQEIYQELTQLKAAVERLCHPCPWEWTFFQGNCYFMSNSQRNWHDSITACKEVGAQLVVIKSAEEQNFLQLQSSRSNRFTWMGLSDLNQEGTWQWVDGSPLLPSFKQYWNRGEPNNVGEEDCAEFSGNGWNDDKCNLAKFWICKKSAASCSRDEEQFLSPAPATPNPPPA
glycan array binding signal (z-score) [1]: 0.081 | glycan array binding signal (z-score) [2]: -0.129 | glycan array binding signal (z-score) [3]: -0.054 | glycan array binding signal (z-score) [4]: -0.173 | glycan array binding signal (z-score) [5]: -0.063 | glycan array binding signal (z-score) (Man(a1-6)Man): -0.171 | glycan array binding signal (z-score) (Man(b1-4)GlcNAc): -0.196 | glycan array binding signal (z-score) (MurNAc(b1-4)GlcNAc): 0.01 | glycan array binding signal (z-score) (Neu5Ac(a2-3)Gal): -0.182 | glycan array binding signal (z-score) [6]: -0.178 | glycan array binding signal (z-score) [7]: -0.188 | glycan array binding signal (z-score) [8]: -0.13 | glycan array binding signal (z-score) [9]: -0.185 | glycan array binding signal (z-score) [10]: -0.091 | glycan array binding signal (z-score) [11]: -0.193 | glycan array binding signal (z-score) [12]: -0.038 | glycan array binding signal (z-score) [13]: -0.003 | glycan array binding signal (z-score) [14]: -0.202 | glycan array binding signal (z-score) [15]: -0.136 | glycan array binding signal (z-score) [16]: -0.193 | glycan array binding signal (z-score) [17]: -0.142 | glycan array binding signal (z-score) [18]: -0.183 | glycan array binding signal (z-score) [19]: -0.177 | glycan array binding signal (z-score) [20]: -0.159 | glycan array binding signal (z-score) [21]: -0.084 | glycan array binding signal (z-score) [22]: 1.83 | glycan array binding signal (z-score) [23]: -0.162 | glycan array binding signal (z-score) [24]: 0.208 | glycan array binding signal (z-score) [25]: -0.168 | glycan array binding signal (z-score) [26]: -0.203 | glycan array binding signal (z-score) [27]: -0.13 | glycan array binding signal (z-score) (Neu5Ac(a2-3)Gal(b1-4)Glc): -0.109 | glycan array binding signal (z-score) [28]: -0.183 | glycan array binding signal (z-score) [29]: -0.142 | glycan array binding signal (z-score) [30]: -0.118 | glycan array binding signal (z-score) [31]: -0.107 | glycan array binding signal (z-score) [32]: -0.159 | glycan array binding signal (z-score) [33]: -0.196
